Measurements as given in PubChem BioAssay (NCATS).
Inconclusive results, whose numbers are uncertain, are shown with a selection of clear calls. No potency is given beside an inconclusive call; the fits are too rough. Active and inactive are the calls of the source. Calls come from the whole dose curve; as a rule, active = well fitted inhibition curve with a large enough effect; inconclusive = small, poorly fitted or top-dose-only effect; inactive = no such curve, though single readings can be large or run the other way.

Target: Retinal dehydrogenase 2 (Homo sapiens) (UniProt O94788)
Assay: qHTS for Inhibitors of the Aldehyde Dehydrogenase Family (ALDH1A2) Confirmation screens (AID 2061314); note: nearly all actives have a fitted effect of over 65% in size
Conditions: ALDH1A2 enzyme inhibition qHTS confirmation; series mostly up to 45.9 µM
Potency is the fitted concentration of half-maximal effect; tags give direction and shape of the fitted curve.

SMILES	Potency
O=C(OCC1=C[C@@H](O)[C@@H]2C=CO[C@@H](O[C@@H]3O[C@H](CO)[C@@H](O)[C@H](O)[C@H]3O)[C@H]12)c1ccc(O)cc1	inactive
CC1(C)C[C@H]2C=C(C=O)[C@]3(C(=O)O)C[C@]3(C)[C@H]2C1	inactive
Cc1cc(C)cc(-c2ccc(C=O)cc2)c1	inactive
CN1CCC2(CCN3CCc4c(oc5ccccc45)C3C2)N(C)C1=O (stereo not drawn)	inconclusive [inhibitor, partial curve, poor fit]
O=C(NC1CCCc2c1cnn2-c1ccc(F)cc1F)c1ccncc1 (stereo not drawn)	inactive

Target: Retinaldehyde dehydrogenase 3 (Homo sapiens) (UniProt P47895)
Assay: qHTS for Inhibitors of the Aldehyde Dehydrogenase Family (ALDH1A3) Primary screen (AID 2061315)
Conditions: ALDH inhibition qHTS; activity change, negative = inhibition: at 56 µM (top of the series) unless noted

SMILES	Potency
COc1cc(/C=C/C(=O)O[C@H]2[C@H](OC(=O)/C=C/c3cc(OC)c(O)c(OC)c3)O[C@H](CO[C@@H]3O[C@H](CO)[C@@H](O)[C@H](O)[C@H]3O)[C@@H](O)[C@@H]2O)ccc1O	inconclusive [inhibitor, partial curve]
COc1cccc(CCC(=O)NCCc2nc3ccccc3n2CCOc2ccc(C)cc2)c1	inactive
NCCCCN(Cc1nc2ccccc2[nH]1)[C@H]1CCCc2cccnc21	inactive
COc1cc(CC2COC(c3ccc(OC4OC(CO)C(O)C(O)C4O)c(OC)c3)C2CO)ccc1O (stereo not drawn)	active: 8.91 µM

Target: Aldehyde dehydrogenase 1A1 (Homo sapiens) (UniProt P00352)
Assay: qHTS for Inhibitors of the Aldehyde Dehydrogenase Family (ALDH1A1) Confirmatory screens (AID 2061316); note: nearly all actives have a fitted effect of over 65% in size
Conditions: ALDH inhibition qHTS; activity change, negative = inhibition: at 47.3 µM (top of the series); series mostly up to 47.3 µM

SMILES	Potency
COc1cc(/C=C/C(=O)O[C@H]2[C@H](OC(=O)/C=C/c3cc(OC)c(O)c(OC)c3)O[C@H](CO[C@@H]3O[C@H](CO)[C@@H](O)[C@H](O)[C@H]3O)[C@@H](O)[C@@H]2O)ccc1O	inactive
O=S1(=O)N=C(Oc2ccccc2F)c2ccccc21	inconclusive [inhibitor, partial curve]
NC(=O)c1ccc(C[C@H](C(=O)O)N2C(=O)c3ccc(C(=O)O)cc3C2=O)cc1	inactive
CCOc1ccc(-c2cc(C(=O)NCCc3ccc(C)cc3)c3ccccc3n2)cc1	inactive
Cc1ccc(-n2nc(C)c3c(C(=O)Nc4ccc(Br)c(C)c4)cc(C)nc32)cc1	inconclusive [inhibitor, partial curve]
COc1cccc(CCC(=O)NCCc2nc3ccccc3n2CCOc2ccc(C)cc2)c1	active: 6.34 µM
CC(C)=C1CC2C(CCC2(C)O)C(C)(O)CC1=O (stereo not drawn)	inconclusive [inhibitor, partial curve, poor fit]
O=C(O)c1ccc2c(c1)C(=O)N([C@H](Cc1ccc(F)cc1)C(=O)O)C2=O	inactive
Cc1nc(C)c(-c2ccc3ncnc(NCc4ncc[nH]4)c3c2)s1	inactive
CCN(CC)c1cc2c(cc1S(=O)(=O)Nc1ccc(C)c(C)c1)CCC(=O)N2	inconclusive [inhibitor, partial curve, poor fit]
Cc1ccc(CSc2ccc3nnc(CCNS(=O)(=O)c4ccc(C)cc4)n3n2)cc1	inconclusive [inhibitor, full curve]
NC(=O)C1CCN(c2nc(-c3ccc4occc(=O)c4c3)cs2)CC1	inconclusive [inhibitor, single point]
CCCc1nnc(-c2cnn(C)c2N)n1CCCn1ccnc1	inactive
CC(=O)SCC(CC(=O)c1ccc(C)cc1)C(=O)O (stereo not drawn)	inactive
NCCCCN(Cc1nc2ccccc2[nH]1)[C@H]1CCCc2cccnc21	inactive
O=C(Nc1cc(C(F)(F)F)cc(C(F)(F)F)c1)c1cnc(Cl)nc1C(F)(F)F	inactive
COc1ccc(CNC(=O)c2cc3c(=O)n(Cc4ccc(OC)cc4)ccc3nc2C)cc1	inactive
COc1ccc(C2=Nn3c(nnc3-c3cc(OC)cc(OC)c3)SC2)cc1	inactive
CC(=O)c1ccc(NC(=O)c2cc(-c3ccc(C)s3)nc3ccccc23)cc1	inconclusive [inhibitor, partial curve]
COc1ccc2c(c1)c(C(=O)CN(C)C)c(C)n2C	inactive
COc1cc(CC2COC(c3ccc(OC4OC(CO)C(O)C(O)C4O)c(OC)c3)C2CO)ccc1O (stereo not drawn)	inconclusive [inhibitor, partial curve, poor fit]
Cn1cc(Nc2cnccc2C(=O)O)c2cccnc21	inconclusive [inhibitor, partial curve]
NC1CCN(c2cnc3c(O)ccc(C(=O)O)c3c2)CC1	inconclusive [inhibitor, partial curve]
C=CC(=O)Nc1cccc(Nc2nc(Nc3ccc(Oc4ccnc(C(=O)NC)c4)cc3)ncc2F)c1	inactive
